# Test results reported in PubChem BioAssay AID504332 (National Center for Advancing Translational Sciences (NCATS), 2011).
# The campaign covered roughly 350,000 compounds. About 31,000 (8.9%) were called active. This list was built around the results that the source calls inconclusive (neither active nor inactive); the mix of calls is not that of the screen. Calls come from the whole dose curve; as a rule, active = well fitted inhibition curve with a large enough effect; inconclusive = small, poorly fitted or top-dose-only effect; inactive = no such curve, though single readings can be large or run the other way. Where the call is inconclusive, the potency comes from a doubtful curve fit.
# Molecular target: Histone-lysine N-methyltransferase EHMT2 (Homo sapiens) (UniProt Q96KQ7)
# Assay: qHTS Assay for Inhibitors of Histone Lysine Methyltransferase G9a; note: nearly all actives have a fitted effect of over 75% in size
# Details: G9a H3K9 monomethylation, AlphaScreen, 2 h; activity, negative = inhibition: at 59 µM (top of the series) unless noted
# Summary of the method: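 Quantitative HTS format: methyltransferase activity on a biotin-tagged H3K9 peptide is measured by AlphaScreen, using a rabbit anti-monomethyl-H3K9 antibody with streptavidin donor and anti-IgG acceptor beads. Final levels are 20 nM enzyme, 500 nM peptide, 20 uM SAM; 2 h RT.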
# % is set by controls: 0 for no effect and ±100 for the full control effect; potency is the fitted concentration of half-maximal effect; tags give direction and shape of the fitted curve.
# Sequence of UniProt Q96KQ7 (Q96KQ7 whole entry, looked up): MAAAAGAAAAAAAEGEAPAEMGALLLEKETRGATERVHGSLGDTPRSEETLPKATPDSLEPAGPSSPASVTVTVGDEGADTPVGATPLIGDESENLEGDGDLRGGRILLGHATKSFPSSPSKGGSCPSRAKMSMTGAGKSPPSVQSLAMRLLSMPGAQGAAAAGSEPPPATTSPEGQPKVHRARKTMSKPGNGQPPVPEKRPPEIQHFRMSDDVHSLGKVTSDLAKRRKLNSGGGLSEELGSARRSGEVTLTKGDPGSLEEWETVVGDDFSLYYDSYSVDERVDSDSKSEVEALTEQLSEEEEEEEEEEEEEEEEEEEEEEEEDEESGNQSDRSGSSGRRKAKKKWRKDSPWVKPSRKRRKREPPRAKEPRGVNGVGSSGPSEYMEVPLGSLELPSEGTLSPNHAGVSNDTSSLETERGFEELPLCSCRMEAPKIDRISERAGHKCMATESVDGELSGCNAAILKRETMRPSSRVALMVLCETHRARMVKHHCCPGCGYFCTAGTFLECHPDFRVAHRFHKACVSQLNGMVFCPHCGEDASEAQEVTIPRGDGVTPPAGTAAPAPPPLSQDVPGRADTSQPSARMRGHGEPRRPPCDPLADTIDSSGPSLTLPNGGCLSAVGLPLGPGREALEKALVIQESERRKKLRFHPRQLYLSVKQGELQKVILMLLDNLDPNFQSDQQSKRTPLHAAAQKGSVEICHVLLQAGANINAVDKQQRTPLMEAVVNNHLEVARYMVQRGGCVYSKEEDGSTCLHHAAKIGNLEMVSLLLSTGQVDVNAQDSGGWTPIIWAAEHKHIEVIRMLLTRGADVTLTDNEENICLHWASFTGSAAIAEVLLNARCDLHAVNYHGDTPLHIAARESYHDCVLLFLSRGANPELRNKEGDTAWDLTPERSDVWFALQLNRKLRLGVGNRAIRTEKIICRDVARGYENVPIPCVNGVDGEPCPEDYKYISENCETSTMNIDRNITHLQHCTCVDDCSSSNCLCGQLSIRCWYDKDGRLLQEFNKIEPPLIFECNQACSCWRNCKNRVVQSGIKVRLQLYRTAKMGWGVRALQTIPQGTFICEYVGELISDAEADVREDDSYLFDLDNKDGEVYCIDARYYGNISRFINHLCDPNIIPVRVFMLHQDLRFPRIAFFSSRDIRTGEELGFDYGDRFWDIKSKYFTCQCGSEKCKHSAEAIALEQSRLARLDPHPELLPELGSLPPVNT
Compound,Potency,"activity, negative = inhibition"
O=C(OCc1cc(=O)n2nc(-c3cccs3)sc2n1)c1ccccc1Br,inactive,
CC1=CCC2COC(c3ccc[n+](Cc4ccccc4)c3)C1C2 (stereo unspecified),"inconclusive: 28.2 µM [inhibitor, single point]",
CCOC(=O)N=Nc1c2ccccc2c2nc3no[nH]c3nc12,"inconclusive: 50.1 µM [inhibitor, partial curve]",
O=C(OCc1ccccc1)c1cccnc1,active: 1.41 µM,
COc1ccc(C(CC(=O)Nc2ccc(C)cc2)NC(=O)C(F)(F)F)cc1 (stereo unspecified),active: 79.4 µM,
COc1ccc(-c2nc3cnc(N4CCN(C)CC4)nc3n(CCc3ccccc3)c2=O)cc1,,inactive: 10.4% [at 0.501 µM]
CC1CCN(c2ccccc2NC(=O)c2cc([N+](=O)[O-])ccc2N2CCOCC2)CC1,"inconclusive: 56.2 µM [inhibitor, partial curve, poor fit]",
CC(C)c1ccccc1NC(=O)c1ccc2ncsc2c1,"inconclusive: 89.1 µM [inhibitor, single point]",
CCOc1ccc(NS(=O)(=O)c2ccc(C(=O)NCCN3CCOCC3)cc2)cc1,,inactive: -5.14% [at 0.501 µM]
Cc1nc(C#N)c(N/N=C/c2c(F)cccc2Cl)o1,inactive,
CCCCC(=O)Nc1ccc(C(=O)N2CCCC(C(=O)OCC)C2)cc1 (stereo unspecified),"inconclusive: 35.5 µM [inhibitor, partial curve, poor fit]",
O=C(Cn1nc(Cl)nc1Cl)c1ccc2c(c1)OCCO2,"inconclusive: 70.8 µM [inhibitor, single point]",
COc1ccc(OCc2nc3c4c(-c5ccc(OC)cc5)c(-c5ccc(OC)cc5)oc4ncn3n2)cc1,inactive,
CNc1oc(-c2ccc(COc3ccc(C)cc3)o2)nc1C#N,inactive,
CCCn1c2ccccc2c2cnn(CC(=O)Nc3ccc(C)cc3Br)c(=O)c21,inactive,
Cc1cc(C)cc(C(=O)Nc2nnc3n2CCS3)c1,inactive,
CCOC(=O)c1ccc(NC(=O)CSc2nccn2Cc2ccc(OC)cc2)cc1,"inconclusive: 8.91 µM [inhibitor, partial curve]",
O=C(CSc1ncc2c(n1)-c1cc(Cl)ccc1N(Cc1ccccc1F)S2(=O)=O)Nc1cccc(C(F)(F)F)c1,inactive,
Cc1[nH]c(=S)c(C#N)c(C)c1CCC#N,active: 2.82 µM,
O=C(CCc1c[nH]c2ccccc12)N1CCN(c2ccc(F)cc2)CC1,"inconclusive: 56.2 µM [inhibitor, partial curve, poor fit]",
CCCOc1ccc(Cc2nn3c(=O)/c(=C/c4ccco4)sc3nc2=O)cc1,"inconclusive: 22.4 µM [inhibitor, single point]",
Cc1cccc(S(=O)Cc2ccc(C(=O)NC3CCCCCC3)o2)c1 (stereo unspecified),inactive,
CCc1ccc(-c2nn[nH]n2)cc1,inactive,

Compound,Potency,"activity, negative = inhibition"
COc1ccc(C(=NNc2ccccc2C(=O)O)c2ccc(OC)cc2)cc1,"inconclusive: 39.8 µM [inhibitor, single point]",
C=CCNC(=S)NNc1nc2c(c(=O)[nH]1)C1(CCCC1)Cc1ccccc1-2,"inconclusive: 28.2 µM [inhibitor, single point]",
COC(=O)[C@@]1(Cc2ccc(F)cc2)[C@H]2c3cc(C(=O)N(C)C)n(Cc4ccccn4)c3C[C@H]2CN1C(=O)c1ccccc1,"inconclusive: 79.4 µM [inhibitor, single point]",
CC1CCN(S(=O)(=O)c2ccc(NC(=O)[C@@H]3CCCN3C(=O)c3cccs3)cc2)CC1,"inconclusive: 1.12 µM [inhibitor, single point]",
COc1ccc(CNC(=O)CSc2ccsc2[N+](=O)[O-])cc1,"inconclusive: 50.1 µM [inhibitor, partial curve]",
CCCCC(=O)NNC(=S)NC(=O)C(c1ccccc1)c1ccccc1,"inconclusive: 50.1 µM [inhibitor, partial curve]",
Cc1cc2nc3n(c2cc1C)CC1CC(C(=O)NCc2ccco2)N(C)C31 (stereo unspecified),,inconclusive: -57.5% [inhibitor]
CCn1c(C(=O)N2CCCC(C(=O)NCCCc3ccccc3)C2)cc2sccc21 (stereo unspecified),"inconclusive: 39.8 µM [inhibitor, single point]",
CC(=O)c1cccc(NC(=S)NC(=O)c2ccc(C)cc2)c1,"inconclusive: 50.1 µM [inhibitor, partial curve]",
CN=C1SC(CC(=O)Nc2cc(Cl)ccc2Cl)C(=O)N1C (stereo unspecified),"inconclusive: 4.47 µM [inhibitor, partial curve, poor fit]",
CSc1nc(Cl)cc(N(CCO)CCO)n1,inactive,
Cc1ccc(C(=O)Nc2ccc(C(=O)OCc3cc(=O)n4c5c(sc4n3)CCCC5)cc2)cc1,,inactive: 0.803% [at 12.7 µM]
CC(O)C1C(=O)OC2(C)CC(C)(C)NC(=S)N12 (stereo unspecified),"inconclusive: 35.5 µM [inhibitor, single point]",
Cc1cc(OCC(=O)NNC(=O)c2ccncc2)cc(C)c1Cl,"inconclusive: 44.7 µM [inhibitor, partial curve, poor fit]",
NC(=O)C1CCN(C(c2ccccc2Cl)c2nnnn2Cc2ccc3c(c2)OCO3)CC1 (stereo unspecified),inactive,
CCOc1ccc(N=Nc2ccc(N)cc2N)cc1,"inconclusive: 1 µM [inhibitor, partial curve, poor fit]",
O=S(=O)(c1ccc(SCCOc2cccc(Br)c2)nc1)N1CCCC1,,inactive: 9.26% [at 12.7 µM]
O=C(c1cc(COc2ccc(F)cc2F)on1)N1CCOCC1,inactive,
O=C1CC(C(=O)Nc2cccc3ccccc23)C2(CCCC2)O1 (stereo unspecified),,inconclusive: -60.6% [inhibitor]
O=C(Nc1ccc(CN2CCCCC2)cc1)Nc1ccccc1Cl,"inconclusive: 39.8 µM [inhibitor, partial curve, poor fit]",
COc1ccc(CNC(=O)c2cccc(-c3ccc(C)c4ccccc34)n2)cc1,"inconclusive: 4.47 µM [inhibitor, partial curve, poor fit]",
O=C(c1ccc2c(c1)N(Cc1ccccc1)C(=O)c1ccccc1S2=O)N1CCC(Cc2ccccc2)CC1 (stereo unspecified),inactive,
O=C(O)CN1CCN(c2ncc(C(F)(F)F)cc2Cl)CC1,active: 50.1 µM,
